Test results from the supplement of paper PMC4967469.
Lines with a small IC50 respond at low doses; a limit (>, <) means that the fit lies beyond the doses tested. For AUC the same curve is integrated over the 256-fold range of doses and scaled to a fraction; the more sensitive the line, the further below 1. For some of these results: An inferred top dose comes from the curve model; the source does not state it. For some of these results: Where an entry number is given, a second screen of the drug exists; the two often differ.

Experiments:
Assay in all cases: Viability of human cancer cell lines after 72 h of drug (GDSC screen)
[1] = compound: N#CC(c1ccnc(NCCc2cccnc2)n1)c1nc2ccccc2s1 [AS601245]; details: top dose 8 µM; top dose inferred
Method: (§1)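 Human cancer cell lines in 384-well plates, medium with 10% serum, drug for 72 h over a 256-fold dose range (nine 2-fold or five 4-fold steps up to the top dose). Adherent lines were fixed and stained with the nucleic acid dye Syto60, suspension lines read with resazurin; signal relative to control wells, capped at 0 and 100%. One two-parameter sigmoid per drug and line, fitted in a mixed model over all curves with the slope shared within a line.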

[2] = compound: Cc1ccc(NC(=O)c2cccc(C(C)(C)C#N)c2)cc1Nc1ccc2ncn(C)c(=O)c2c1 [AZ628]; details: top dose 4 µM; top dose inferred
Method: as §1

[3] = compound: Nc1ccc(C(=O)Nc2cccc(-c3nc(N4CCOCC4)c4oc5ncccc5c4n3)c2)cn1 [YM201636]; details: top dose 5.12 µM; top dose inferred
Method: as §1

[4] = compound: NC(=O)C1CCCc2c1[nH]c1ccc(Cl)cc21 [EX-527]; details: top dose 20 µM
Method: as §1

[5] = compound: Cn1cnc2c(F)c(Nc3ccc(Br)cc3Cl)c(C(=O)NOCCO)cc21 [AZD6244]; details: top dose 4 µM; screen: GDSC drug entry 1498; top dose inferred
Method: as §1

BC-3 (B-cell lymphoma, suspension)
AUC [1]: 0.907
IC50 [1]: > 8 µM
AUC [2]: 0.875
IC50 [2]: 3.2 µM
AUC [3]: 0.842
IC50 [3]: 3.06 µM
AUC [4]: 0.987
IC50 [4]: > 20 µM

CAL-148 (breast, suspension)
AUC [1]: 0.988
IC50 [1]: > 8 µM
AUC [2]: 0.99
IC50 [2]: > 4 µM
AUC [3]: 0.917
IC50 [3]: > 5.12 µM
AUC [4]: 0.982
IC50 [4]: > 20 µM

CGTH-W-1 (thyroid, adherent)
AUC [1]: 0.839
IC50 [1]: 5.42 µM
AUC [2]: 0.404
IC50 [2]: 0.137 µM
AUC [3]: 0.902
IC50 [3]: > 5.12 µM
AUC [4]: 0.986
IC50 [4]: > 20 µM

CRO-AP2 (B-cell lymphoma, suspension)
AUC [2]: 0.966
IC50 [2]: > 4 µM
AUC [5]: 0.963
IC50 [5]: > 4 µM

D-247MG (glioma, adherent)
AUC [2]: 0.819
IC50 [2]: 3.43 µM
AUC [3]: 0.962
IC50 [3]: > 5.12 µM
AUC [5]: 0.927
IC50 [5]: > 4 µM
AUC [4]: 0.974
IC50 [4]: > 20 µM

D-336MG (glioma, adherent)
AUC [2]: 0.942
IC50 [2]: > 4 µM
AUC [3]: 0.844
IC50 [3]: > 5.12 µM
AUC [5]: 0.854
IC50 [5]: > 4 µM
AUC [4]: 0.975
IC50 [4]: > 20 µM

D-542MG (glioma, adherent)
AUC [2]: 0.939
IC50 [2]: > 4 µM
AUC [3]: 0.976
IC50 [3]: > 5.12 µM
AUC [5]: 0.921
IC50 [5]: > 4 µM
AUC [4]: 0.98
IC50 [4]: > 20 µM

DND-41 (T-cell leukaemia, suspension)
AUC [1]: 0.794
IC50 [1]: 3.2 µM
AUC [2]: 0.809
IC50 [2]: 1.8 µM
AUC [5]: 0.93
IC50 [5]: > 4 µM

DOHH-2 (B-cell lymphoma, suspension)
AUC [1]: 0.861
IC50 [1]: 6.53 µM
AUC [2]: 0.741
IC50 [2]: 1.2 µM

ECC12 (stomach, suspension)
AUC [2]: 0.765
IC50 [2]: 1.83 µM

EHEB (lymphoid neoplasm, suspension)
AUC [1]: 0.874
IC50 [1]: > 8 µM
AUC [2]: 0.817
IC50 [2]: 3.72 µM
AUC [5]: 0.781
IC50 [5]: 2.52 µM

EW-12 (Ewing sarcoma, suspension)
AUC [2]: 0.841
IC50 [2]: > 4 µM

EW-22 (Ewing sarcoma, adherent)
AUC [2]: 0.839
IC50 [2]: 2.57 µM
AUC [5]: 0.986
IC50 [5]: > 4 µM

GA-10 (Burkitt lymphoma, suspension)
AUC [2]: 0.815
IC50 [2]: 1.77 µM
AUC [5]: 0.968
IC50 [5]: > 4 µM

GCIY (stomach, adherent)
AUC [1]: 0.847
IC50 [1]: 7.1 µM
AUC [2]: 0.96
IC50 [2]: > 4 µM
AUC [3]: 0.899
IC50 [3]: > 5.12 µM
AUC [4]: 0.974
IC50 [4]: > 20 µM

HCC1599 (breast, suspension)
AUC [1]: 0.866
IC50 [1]: > 8 µM
AUC [2]: 0.844
IC50 [2]: 3.49 µM
AUC [3]: 0.821
IC50 [3]: 3.54 µM
AUC [4]: 0.982
IC50 [4]: > 20 µM

HCC-33 (small cell lung carcinoma, adherent)
AUC [1]: 0.971
IC50 [1]: > 8 µM
AUC [2]: 0.982
IC50 [2]: > 4 µM
AUC [3]: 0.948
IC50 [3]: > 5.12 µM
AUC [4]: 0.987
IC50 [4]: > 20 µM

HH (T-cell leukaemia, suspension)
AUC [1]: 0.832
IC50 [1]: 7.66 µM
AUC [2]: 0.945
IC50 [2]: > 4 µM
AUC [5]: 0.957
IC50 [5]: > 4 µM
AUC [4]: 0.943
IC50 [4]: > 20 µM

HL-60 (acute myeloid leukaemia, suspension)
AUC [1]: 0.912
IC50 [1]: > 8 µM
AUC [2]: 0.431
IC50 [2]: 0.165 µM
AUC [5]: 0.793
IC50 [5]: 1.62 µM
AUC [4]: 0.99
IC50 [4]: > 20 µM

IM-9 (myeloma, suspension)
AUC [1]: 0.876
IC50 [1]: 6.08 µM
AUC [2]: 0.9
IC50 [2]: 3.89 µM
AUC [5]: 0.846
IC50 [5]: 2.35 µM

IST-SL2 (small cell lung carcinoma, suspension)
AUC [1]: 0.841
IC50 [1]: 5.5 µM
AUC [2]: 0.81
IC50 [2]: 2.09 µM
AUC [5]: 0.986
IC50 [5]: > 4 µM
AUC [4]: 0.989
IC50 [4]: > 20 µM

K-562 (chronic myeloid leukaemia, suspension)
AUC [1]: 0.944
IC50 [1]: > 8 µM
AUC [2]: 0.72
IC50 [2]: 1.03 µM

KARPAS-231 (B-cell leukaemia, suspension)
AUC [1]: 0.915
IC50 [1]: 6.96 µM
AUC [2]: 0.835
IC50 [2]: 1.83 µM
AUC [5]: 0.991
IC50 [5]: > 4 µM

KASUMI-1 (acute myeloid leukaemia, suspension)
AUC [2]: 0.964
IC50 [2]: > 4 µM
AUC [5]: 0.728
IC50 [5]: 1.12 µM

KP-N-YS (neuroblastoma, adherent)
AUC [1]: 0.912
IC50 [1]: > 8 µM
AUC [2]: 0.947
IC50 [2]: > 4 µM
AUC [3]: 0.871
IC50 [3]: > 5.12 µM
AUC [4]: 0.934
IC50 [4]: > 20 µM

LB647-SCLC (small cell lung carcinoma, semi-adherent)
AUC [1]: 0.971
IC50 [1]: > 8 µM
AUC [2]: 0.981
IC50 [2]: > 4 µM
AUC [5]: 0.983
IC50 [5]: > 4 µM
AUC [4]: 0.913
IC50 [4]: > 20 µM

LU-65 (large cell lung carcinoma, suspension)
AUC [1]: 0.941
IC50 [1]: > 8 µM
AUC [2]: 0.902
IC50 [2]: > 4 µM
AUC [3]: 0.859
IC50 [3]: > 5.12 µM
AUC [4]: 0.987
IC50 [4]: > 20 µM

MHH-NB-11 (neuroblastoma, adherent)
AUC [1]: 0.954
IC50 [1]: > 8 µM
AUC [2]: 0.934
IC50 [2]: > 4 µM
AUC [3]: 0.9
IC50 [3]: > 5.12 µM
AUC [4]: 0.985
IC50 [4]: > 20 µM

MOLT-13 (T-cell lymphoblastic leukaemia, suspension)
AUC [2]: 0.865
IC50 [2]: 2.86 µM
AUC [3]: 0.836
IC50 [3]: 2.83 µM
AUC [5]: 0.604
IC50 [5]: 0.464 µM
AUC [4]: 0.983
IC50 [4]: > 20 µM

MSTO-211H (mesothelioma, adherent)
AUC [1]: 0.963
IC50 [1]: > 8 µM
AUC [2]: 0.85
IC50 [2]: 2.61 µM
AUC [3]: 0.991
IC50 [3]: > 5.12 µM
AUC [4]: 0.988
IC50 [4]: > 20 µM
